# Source: article PMC4336329 (PLoS ONE, 2015)
# About 14,000 (4.5%) of roughly 310,000 compounds showed an effect of 50% or more. The effect is printed as a negative number. Some of the results follow.
# Target: human ether-à-go-go-related gene (hERG) potassium channel (human, UniProt Q12809)
# Assay: primary screen, population patch clamp on CHO cells stably expressing hERG
# 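Further: peak tail current of the secondary pulse compared with the same well before compound.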
# human ether-à-go-go-related gene (hERG) potassium channel, sequence (Q12809 whole entry, looked up): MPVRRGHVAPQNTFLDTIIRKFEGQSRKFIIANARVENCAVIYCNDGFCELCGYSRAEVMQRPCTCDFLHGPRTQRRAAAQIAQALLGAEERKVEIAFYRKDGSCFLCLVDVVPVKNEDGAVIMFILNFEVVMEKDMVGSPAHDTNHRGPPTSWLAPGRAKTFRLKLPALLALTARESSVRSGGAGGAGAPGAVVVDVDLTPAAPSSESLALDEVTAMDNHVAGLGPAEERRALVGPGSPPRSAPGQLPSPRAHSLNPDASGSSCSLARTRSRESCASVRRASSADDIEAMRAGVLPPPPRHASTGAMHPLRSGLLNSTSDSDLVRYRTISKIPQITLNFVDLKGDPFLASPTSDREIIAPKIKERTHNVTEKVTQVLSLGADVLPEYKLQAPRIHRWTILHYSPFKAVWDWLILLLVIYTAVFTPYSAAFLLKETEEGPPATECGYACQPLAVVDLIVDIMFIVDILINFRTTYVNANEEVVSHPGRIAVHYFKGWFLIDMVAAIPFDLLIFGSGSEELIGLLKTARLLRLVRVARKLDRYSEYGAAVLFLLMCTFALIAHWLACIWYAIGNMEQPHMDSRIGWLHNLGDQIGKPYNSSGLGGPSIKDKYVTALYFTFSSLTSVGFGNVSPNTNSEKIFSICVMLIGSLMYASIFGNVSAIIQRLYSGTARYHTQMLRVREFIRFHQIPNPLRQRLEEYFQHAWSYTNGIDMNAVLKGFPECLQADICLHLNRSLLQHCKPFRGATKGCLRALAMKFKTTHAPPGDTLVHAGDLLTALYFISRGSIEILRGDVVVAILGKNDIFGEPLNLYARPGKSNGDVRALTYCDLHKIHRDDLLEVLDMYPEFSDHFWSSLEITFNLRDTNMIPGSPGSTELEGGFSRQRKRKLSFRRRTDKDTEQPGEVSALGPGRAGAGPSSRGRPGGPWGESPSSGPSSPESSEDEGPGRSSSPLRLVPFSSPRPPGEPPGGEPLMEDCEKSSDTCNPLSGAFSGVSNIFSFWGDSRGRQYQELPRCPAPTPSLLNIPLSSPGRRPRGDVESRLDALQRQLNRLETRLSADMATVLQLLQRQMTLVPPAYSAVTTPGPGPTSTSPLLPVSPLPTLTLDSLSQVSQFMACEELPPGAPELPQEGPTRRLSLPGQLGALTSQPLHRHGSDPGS
row,SMILES,"hERG current change (%, negative = inhibition) at 10uM"
1,C=CCNc1nc2ccccc2nc1NS(=O)(=O)c1cccc(C)c1,9.73%
2,CC(=O)CC(=O)NC1C2CC3CC(C2)CC1C3 (stereo not drawn),24.8%
3,COc1ccc(OCc2cc(C(=O)N(C)Cc3cnccn3)no2)c(Cl)c1,-2.98%
4,COc1ccc(CCNC2=C(Cl)C(=O)N(Cc3ccccc3)C2=O)cc1OC,6.51%
5,Cc1ccc(C(=O)Nc2ccccc2C(=O)NCc2cccnc2)cc1,-7.23%
6,CCOC(=O)c1c(NC(=O)COC(=O)c2ccccn2)sc(C)c1C,2.02%
7,COc1cc(C(=O)Nc2ccc(C(C)=O)cc2)c(Br)c(OC)c1OC,14.6%
8,COCc1nnc(NC(=O)c2ccc3c(c2)OCO3)s1,19%
9,CC(c1ccccc1)C1CC(=O)N(C2CCCCC2)C1=O (stereo not drawn),-13.3%
10,Cc1c(N(C)S(=O)(=O)c2cc(C(=O)N3CCCC3)ccc2Cl)c(=O)n(-c2ccccc2)n1C,2.81%
11,Cc1nc2ccccn2c1P(=S)(N1CCCCC1)N1CCCCC1,-44.1%
12,Cn1c(=O)n(C)c2cc([N+](=O)[O-])c(N3CCN(C(=O)c4ccccc4Cl)CC3)cc21,-34.4%
13,CN(C)CCNc1nc(-c2ccccc2)nnc1C(F)(F)F,-3.83%
14,CCOC(=O)c1c[nH]c2nc(C)ccc2c1=O,47.9%
15,CCOC1OC(=O)C(Cl)=C1Nc1ccc(C)cc1 (stereo not drawn),1.26%
16,OCC[C@@H]1C[C@H](O)[C@@H](O)[C@]2(CCCO2)O1,21%
17,COc1ccc(CCC(=O)N(C)CC(=O)Nc2ccc(N3CCOCC3)cc2)cc1,-11%
18,C=CCOC(=O)COc1ccc2c(C)c(CC)c(=O)oc2c1,-3.99%
19,CCC(=O)Nc1nc2c(s1)COc1ccccc1-2,-3.76%
20,O=C(Cn1nc(-c2ccccc2)c2ccccc2c1=O)Nc1ccc2c(c1)nc1n2CCOC1,15.4%
21,COc1ccc(N(CC(=O)Nc2ccc(F)c(Cl)c2)S(=O)(=O)c2c(C)noc2C)cc1,-32.7%
22,Cc1ccc2c(-c3ccc([N+](=O)[O-])cc3)cc(=O)[nH]c2c1,-3.35%

row,SMILES,"hERG current change (%, negative = inhibition) at 10uM"
1,O=C(c1ccccc1O)N1N=C(C(F)(F)F)CC1(O)c1ccc([N+](=O)[O-])cc1 (stereo not drawn),-23.4%
2,O=S(=O)(c1ccccc1Br)N1CCC(O)(c2cccnc2)CC1,-5.76%
3,CCN(Cc1ccccc1)C(=O)c1oc2ccc(S(=O)(=O)N3CCOCC3)cc2c1C,-6.06%
4,CCN(CC)CCN1C(=O)C(=O)/C(=C(/O)c2ccc(S(=O)(=O)N3CCOCC3)cc2)C1c1ccccc1 (stereo not drawn),19%
5,O=[N+]([O-])c1cccnc1-n1cnc2ccccc21,16.3%
6,Cc1ccc(C(=O)c2ccc([N+](=O)[O-])cc2)c(C)c1,-8.77%
7,OCc1ccccc1N=c1ssnc1Cl,15.9%
8,Cc1ccc(C(O)(C(=O)NNc2ccc3ccccc3[nH+]2)c2ccc(C)cc2)cc1.[Cl-],12.9%
9,CCCc1ccc(-c2ccc(/C=C/C(=O)O)cc2)nc1,-3.67%
10,Cc1ccc(S(C)(=O)=O)cc1C(=O)Nc1cccc(S(=O)(=O)N2CCCCCC2)c1,-65.2%
11,CC(C)CC(=O)N(c1ccc(F)cc1)C1C=CS(=O)(=O)C1 (stereo not drawn),14.4%
12,Cc1nnc(SCCn2c(N(C)Cc3ccccc3)nc3c2c(=O)[nH]c(=O)n3C)s1,-42.4%
13,COc1ccc(CNC(=O)COC(=O)C2CC3C=CC2C3)cc1 (stereo not drawn),14.5%
14,CC(=NCCCn1ccnc1)c1c(O)n(-c2ccccc2)c(=O)[nH]c1=O,5.91%
15,C/C(=N\NC(=O)CN1CCOCC1)C(C)(C)C,19.7%
16,COc1ccccc1C1NC=C([N+](=O)[O-])C=C1[N+](=O)[O-] (stereo not drawn),-6.17%
17,Cc1ccc(CCNC(=O)CCn2ccc3cc(S(=O)(=O)N4CCCC4)ccc32)cc1,-23.4%
18,CCN(CC)S(=O)(=O)c1ccc(N2CC(C(=O)NC3(C)CCS(=O)(=O)C3)CC2=O)cc1 (stereo not drawn),24.4%
19,CC(=O)NNC(=O)CSc1nnc(-c2ccccc2)c(-c2ccccc2)n1,19.4%
20,COc1cc(Cl)c(NC2=CC(=O)C(=O)c3ccccc32)c(OC)c1,4.39%
21,COC(=O)c1c(C)n(Cc2ccc3c(c2)OCO3)c2ccc(O)cc12,2.82%
22,CCC(=O)c1ccc(OCCSc2ncccn2)cc1,-27.4%

row,SMILES,"hERG current change (%, negative = inhibition) at 10uM"
1,COc1ccc(NC(=O)CN2C(=O)CSC(C)C2=O)c(OC)c1 (stereo not drawn),-3.11%
2,Cc1cc(C(=O)COc2ccccc2Cl)c(C)n1-c1ccc2c(c1)OCO2,19.5%
3,Cc1ccc(NC(=O)Nc2c(C)n(C)n(-c3ccccc3)c2=O)cc1C,13.1%
4,CCCNC1=C(C)C(=O)C2=C(C1=O)C(COC(N)=O)[C@]1(OC)C3NC3CN21 (stereo partly drawn),12.9%
5,COc1ccc(C(C(=O)NCc2ccccc2)N(Cc2ccc3c(c2)OCO3)C(=O)c2cnccn2)cc1 (stereo not drawn),-46.8%
6,C=CCCOc1ccccc1C(N)=O,1.88%
7,O=C(CSc1nnc(NC2CCCCC2)s1)Nc1ccc(N2CCOCC2)cc1,0.78%
8,O=C(CSc1nnc2ccc(-c3ccc(F)cc3)nn12)N1CCOCC1,1.7%
9,O=C(/C=C1\NC2(CCCC2)Cc2ccccc21)N1CCOCC1.O=S(=O)(O)O,-0.228%
10,Cc1cc(C)c2cc(CN(CC3CCCO3)S(=O)(=O)c3ccc4c(c3)OCCO4)c(=O)[nH]c2c1 (stereo not drawn),-14.1%
11,CCN1CCN(C(=S)Nc2ccc(Cl)cc2)CC1,-18%
12,COC(=O)c1c(-c2cccs2)csc1NC(=O)CN1CCOCC1,-46.4%
13,CC(C)(C)[C@@H]1C=C(C(=O)N2CCN(Cc3ccccc3)CC2)O[C@H](OCc2ccc(CO)cc2)C1,-32.8%
14,O=C1NC(=O)C2C1C(c1ccc([N+](=O)[O-])cc1)=NN2Cc1ccccc1 (stereo not drawn),-0.967%
15,CSc1cccc(NC(=O)c2[nH]c(C)c(C(C)=O)c2C)c1,-29.3%
16,COc1cccc(CNC(=O)C(=O)NCCC2CCCCN2S(=O)(=O)c2cccs2)c1 (stereo not drawn),-23.6%
17,C=CCN1C(=O)/C(=C/c2ccc(OCC(=O)O)cc2)S/C1=N/c1nccs1,4.77%
18,O=C(NCCCn1ccnc1)C1CCCN(S(=O)(=O)c2ccc(F)cc2)C1 (stereo not drawn),10.7%
19,CCN(CC)c1ncnc2c1cnn2Cc1ccc(Cl)cc1,-39%
20,CCO[C@@H]1OC(C(N)=O)=C[C@H](C2CC2)[C@H]1CCCO,7.64%
21,O=C(NC(NCCCN1CCOCC1)(C(F)(F)F)C(F)(F)F)C1CCCCC1,13.6%
22,CC(C)c1ccc(NC(=O)CCNS(=O)(=O)c2cc(Br)cnc2N)cc1,2.34%

row,SMILES,"hERG current change (%, negative = inhibition) at 10uM"
1,COc1cccc(NC(=O)CSc2nc3c(sc4ccccc43)c(=O)n2CCCN2CCCC2)c1,-69.8%
2,O=C(NC1CCSc2ccccc21)c1ccc(Cl)c(S(=O)(=O)N2CCOCC2)c1 (stereo not drawn),7.48%
3,CC(/C=C/c1ccccc1)=N\NC(=O)Cn1nc(C)cc1C,-18%
4,O=C(OCC(=O)N1CCC(Cc2ccccc2)CC1)c1cc(Cl)ccc1O,-1.69%
5,Cc1onc(-c2ccccc2)c1C(=O)N1CCN(C/C=C/c2ccccc2)CC1.Cl,-44%
6,CN(C)c1cc[n+](CC[n+]2ccc(N(C)C)cc2)cc1.[Br-],15.6%
7,CCc1nnc2sc(-c3cc(-c4ccccc4)nc4ccccc34)nn12,2.05%
8,O=C(Nc1ccc(S(=O)(=O)N2CCCC2)cc1)c1cc(=O)c2ccccc2o1,2.3%
9,CCOc1cc(N(CC)CC)ccc1/C=C(/C#N)c1nc2ccccc2[nH]1,0.119%
10,O=S(=O)(NC(=S)NC1CCCCC1)c1ccc(Cl)cc1,14.7%
11,CCC(=O)c1ccc(N2CCCCCC2)c(F)c1,4.04%
12,COC(=O)c1ccc2c(=O)n(CC3CCCO3)c(SCC(=O)Nc3ccc(OC)cc3OC)nc2c1 (stereo not drawn),11.5%
13,COC(=O)c1ccccc1NC(=O)c1ccc(COc2cccc3ccccc23)o1,0.342%
14,Cc1ccc(NC(=O)CSc2ccc(-c3ccco3)nn2)cc1,-7.67%
15,O=C(Nc1cccc2cccnc12)c1cccc(N2C(=O)CCC2=O)c1,13.5%
16,COc1ccc(CCC(=O)N2CCCc3ccccc32)cc1,6.02%
17,Cc1cccc(N2CCN(C(=O)COc3ccc4ccc(=O)oc4c3)CC2)c1C,5.66%
18,Cc1ccc(-n2cnnn2)c(S(=O)(=O)N2CCOCC2)c1,-11.2%
19,CCOC(=O)c1c(C)n(C)c2ccc(OCCN(C)C)cc12,-5.39%
20,CCn1ccnc1CNC(=O)c1ccc2oc(C(C)C)nc2c1,20.5%
21,CCOc1ccc(CCNC(=O)C2CCCN(S(=O)(=O)N3CC(C)CC(C)C3)C2)cc1OCC (stereo not drawn),-5.9%
